Measured values reported in the RNAGym collection of RNA variant scans (doi:10.1073/pnas.2313332121).
Variants at the floor of the assay are shown more often than the library holds them.

B1: TPR 5TU (parent)
chain: GGAUCUUCUCGAUCUAACAAAAAAGACAAAUCUGCCACAAAGCUUGAGAGCAUCUUCGGAUGCAGAGGCGGCAGCCUUCGGUGGCGCGAUAGCGCCAACGUUCUCAACUAUGACACGCAAAACGCGUGCUCCGUUGAAUGGAGUUUAUCAUG

Variants of: B1
Test: polymerase ribozyme fitness, log enrichment relative to wild type (log ratio); higher = more active; in vitro selection for triplet polymerase activity
In short: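 For each subunit of a heterodimeric triplet polymerase ribozyme, a mutant library was built by PCR and transcribed, then taken through a single in vitro selection round in triplicate. Selection involved annealing to a biotinylated primer, the partner subunit and triplets, incubation frozen at −7 °C, gel excision of extended constructs, capture on streptavidin beads and RT-PCR. Genotypes were retained after Illumina sequencing of inputs and outputs only with ≥10 input reads and ≥1 read in each output. Fitness is defined as the logarithm of a genotype's enrichment relative to wild-type enrichment, using inverse-variance-weighted averages across replicates, with the logarithm taken to base 2.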

| Variant | polymerase ribozyme fitness (log ratio) |
| --- | --- |
| GGAUCUUCUCGAUUUAACAACAAAGACAAAUCUGCCACAAAGCUUGAGAGCAUCUUCGGAUGCAGAGGCGGCAGCCUUCGGUGGCGCGAUAGCGCCAACGUUCUCAACUAUGACACGCAAAAAGCGUGCUCCGUUGAAUCGAGUUUAUCAUG | ≤ -4.2 |
| GGAUCUUCUCGAUUUAACAAGAACGACUAAUCUGCCACAAAGCUUGAGAGCACCUUCGGAUGCAGAGGCGGCAGUCUUCGGUGGCGCGAUAGCGCCAACGUUCUCAACUAUGACACGCAAAACGCGUGCUCCGUUGAAUGGAGUUUAUCAUG | ≤ -4.2 |
| GGAUCUUCUCGAUUUAACAAGAAAGACAAAGCGGCCACAAAGCUUGAGAGCAUCAUCGGAUGCAGAGGCGGCGGCCUGCGGUGGCGCGAUAGCGCUAACGUUCUCAACUAUGACACGCAAAACGCGUGCUCCGUUGAAUGGAGUUUAUCAUG | ≤ -4.2 |
| GGAUCUUCUCGAUUUAACAAUAAAGACAAAUCUGCCACAAAGCUUGAGACCAUCUACGGAUGCAGCGGCGGCAGCCUUCGGUGGCGCGAUUGCGCCAACGUUCUCAACUAUGACACGCAAAACGCGUGCUCCGUUGAAUGGACUUUAUCAUG | ≤ -4.2 |
| GGAUCUUCUCGAUUUAACAAAGAAGACAAUUCUGCCACAAAGCUUGAGAGCAUCUUCGGAUGCAGAGGCGGCAGCCUUCGAUGGCGCGAUCGCUCCAACGUUCUCAAGUAUGACACGCAAAACGCGUGCUCCGUUGAAUGGAGUUUAUCAUG | ≤ -4.2 |
| GGAUCUUCUCGAUUUAACAAAUAAGACAAAUCUGCCAUAAAGCUUGAGAGCAUCUUCGGAUGCAGCGGCGGCAGCCUUCGGUGGCGCGAUAGUGCCAACGUUCUCAACUAUGUCACGCAAAACGCGUGCUCCGUUGAAUGGAGUUUAUCAUG | ≤ -4.2 |
| GGAUCUUCUCGAUUUAACAAAUAAGACAAAUCUACCACAAAGCUUGAGAGCGUCUUCAGAUGCAGAGGCGGCAGCCUUCGGUGGCACGAUAGCCCCAACGUUCUCAACUAUGACACGCAAAACGCGUGCUCCGUUGAAUGGAGUUUAACAUC | ≤ -4.2 |
| GGAUCUUCUCGAUUUAACAAAACAGACAAAUCUGCCACAAAGCUUGAGAGCAUCUUCGGAUGCAGAGGCGGCAGCCUUCGGUAGCGCGAUAGCGCCAACGUUCUCAACUAUGACACGCAAAACGCCUGCUCCGUUGAAUGGAGUUUAUCAUG | ≤ -4.2 |
| GGAUCUUCUCGAUUUAACAAAAGAGACAAAUCUGCCACAAAGCUUGAGAGCAUCUUCGGAUGCAGAGGCGGCAGCCUUCGGUGGCGCGAUAGCGCCAACGUUCUCAUCUAUGACACGCAAAACGCGUGCUCCGUUGACUGGAGUUUAUCAUG | ≤ -4.2 |
| GGAUCUUCUCGAUUUAACAAAAUAGACAAAACUGCCACAAAGCUUGCGAGCAUCUUCGGAUGCAGAGGCGGCAGCCUUCGGUGGCGCGAUACCGCGAACGUUCUCAACUAUGACACGCAAAACGCGUGCUACGUUGAAUGGAGUUUAUCAUG | ≤ -4.2 |
| GGAUCUUCUCGAUUUAACAAAAUAGACAAAUCUGCCACAAAGCUUGAGAGCAUCUCCGGAUGCAGAGGCGGCAGCCUUCGGUGGCGUGAGAGCGCCAACGUUCUCAACUAUGACACGCAAAACGCGUGCUCCGUUGAAUGGAGUUUAUCAUG | ≤ -4.2 |
| GGAUCUUCUCGAUUUAACAAAAUAGACAAAUCUGCCACAAAGCUUGAGAGCAUCUUCGGAUGCAGAGGCGGCAGCCUGCGGUGGGGCGAUAGCGCCAACGUUCUCAACUAUGACACGCAAAACGCGUGCUCCGUUGAAUGGAGUUUAUCAAG | ≤ -4.2 |
| GGAUCUUCUCGAUUUAACAAAAAGGACAAGUCUGCUACAAAGCUUGAGAGCAUUUUCGGAUGCAGAGGCGGCAGCCUUCGGUGGCGCGAUAGCGCAAACGUUCUCAACUAUGACACGCAAAACGCGUGCUCCGUUGAAUGGAGUUUAUCAAG | ≤ -4.2 |
| GGAUCUUCUCGAUUUAACAAAAAAGCCAAAUCUGCCACAAACCUAGAGAGCAUCUUCGGAUGCUGAGGCGGCGGCCUUCGGUGGCGGGAUAGCGCAAACGUUCUCAACUAUGACACGCAAAACGCGUGCUCCGUUGAAUGGAGUUUAUCAUG | ≤ -4.2 |
| GGAUCUUCUCGAUUUAACAAAAAAGUCAAAUCUGCCACAAAGCUUGCGAGCAUCUUCGGAUGCAGCGGCGGCAGCCUUCGGUGCCUCGUUAGCGCUAACGUUCUCAACUAUGACACGCAAAACGCGUGCUCCGUUGAAUGGAGUUUAUCAUG | ≤ -4.2 |
| GGAUCUUCUCGAUUUAACAAAAAAGUCAAAUCUGCCACAAAGCUUGAGAGCAUCUUCGGAUGCAGAGGCGGCAGCCUUCGGUGGCGUUAUAGCGCCAACGUUCUCAACUAUGACACGCAAAACGCGUGCUCCGUUGAAUGGAGUUUAUCAUG | ≤ -4.2 |
| GGAUCUUCUCGAUUUAACAAAAAAGUCAAAUCUACCACAAAGCUUGAGAGCAUCUUCGGAUGCAGAGGCGGCAGCCUUCGGUGGCGCGAUAGCGCCAACGUUCUCAACUAGGACACGCAAAACGCGUGCUCCGUUGAAUGGAGUUUAUCAUG | ≤ -4.2 |
| GGAUCUUCUCGAUUUAACAAAAAAGUCAAAUCUGCCACAAAGCUUGAGAGCAUCAUCGGAUGCAGAGGCGGCAACCUUCGGUGGCGCGAUCGCGCCAACGUUCUCAACGAUGACACGCAAAACGCGUGCUCCGUUGAAUGGAGUUUAUCAUG | ≤ -4.2 |
| GGAUCUUCUCGAUUUAACAAAAAAGACUAAUCUGCCACAAAGCUUGAGAGCCUCUUCGGAUGCAGAGGCGGCAGCCUUCGGUGGCGCUAUGGCGCUAACGUUCUCAACUAUGACACGCAAAACGCGUGCUCCGGUGAAUUGAGUUUAUCAUG | ≤ -4.2 |

| Variant | polymerase ribozyme fitness (log ratio) |
| --- | --- |
| GGAUCUUCUCGAUUUAACAAAAAAGACUAAUCUGCCACAAAGCUUGAGAGCAUCUUCGGAUGCAGAGGCGGCAGCCUUCGGUGGCGCGAUAGCGCCAACGUUCUCAACUAUGACACGCAAAGCGCGUGCUCCGUUGAAUGCAGUUUAUCAUG | -4.15 |
| GGAUCUUCUCGAUUUAACAAAAAAGACUAAUCUGCCACAAAGCUUGAGAGUAUCUUCGGAUGCAGAGGCGGCAGCCUUCGGUGGCGCGAUAGCGCCAACGUUCUCAACUAGGACACGCAAAACGCGUGCUCCGUUGAAUGGAGUUUAUCAUG | ≤ -4.2 |
| GGAUCUUCUCGAUUUAACAAAAAAGACAUAUCUGCCACAAAGCUUGAGAGCAUCUUCGGAUGCAGAGGCGGCAGCCUUCGGUGGCGCGAUAGCGCCAACGUUCUCAACUAGGACACGCAAAACGCGUGCUCCGUUGAAUGGAGUUUAUCAUG | ≤ -4.2 |
| GGAUCUUCUCGAUUUAACAAAAAAGACAACUCUGCCACAAAGCUUGAGAGCAUCUUCGGAUGCAGAGGCGGCAGCCUUCGGUGGCGCGAUUGCGCCAACGUUCUCAACUAUGACACGCAAAACGCGUGCUCCGUUGAAUGGAGUUUAUCAUG | ≤ -4.2 |
| GGAUCUUCUCGAUUUAACAAAAAAGACAAGUCUGCCACAAAGCUUGAGAGCCUCGUCGGAUGCAGAGGCGGCAGCCUUCGGUGGCGUGUUAGCGCCAACGUUCUCAACUAUGACAAGCAAAACGCGUGCUCCGUUGAAUGGAGUUUAUCAUG | ≤ -4.2 |
| GGAUCUUCUCGAUUUAACAAAAAAGACAAUUCUGCCACAAAGCUUGAGAGCAUCUUCGGAUGCAAAGGCGGCAGCCUUCGGUGGCGCAAUAGCGCCAACGUUCUCAACUAUGACACGCAAAACGCGUGCUCCGUUGAAAGGAGUUUAUCAUG | ≤ -4.2 |
| GGAUCUUCUCGAUUUAACAAAAAAGACAAUUCUGCCACAAAGCUUGAGAGCAGCUUCUGAUGCACAGGCGGCAACCUUCGGUGGCGCGAUAGCGCCAACGUUCUCAACUAUGACACGCAAAACGCGUGCUCCGUUGAAUGGAGUUUAUCAUG | ≤ -4.2 |
| GGAUCUUCUCGAUUUAACAAAAAAGACAAAUCUGCCCCAAAGCUUGAGAGCCUCUUCGGAUGCAGAGGCGGCAGUCUUCGGUGGCGCGAUAGCGCUAACGUUCUCAACUAUGACAAGCAAAACGCGUGCUCCGUUGAAUGGAGUUUAUCAUG | ≤ -4.2 |
| GGAUCUUCUCGAUUUAACAAAAAAGACAAAUCUGCCCGUAAGCUUGAGACCAUCUUCGGAUGCAGAGGCGGCAGCCUUCGGUGGCGCGAUAGCACCUACGUUCUCAACUAUGACACGCAAAACGCGUGCUCCGUUGAAUGAAGUUUAUCAUG | ≤ -4.2 |
| GGAUCUUCUCGAUUUAACAAAAAAGACAAAUCUGCCACCAAGCUUGAGAGCAUCUUCGGAUGCAGAGGCGCCAGCCUUCGGUGGUGCGAUAGCGCCGACGUUCUCAACUAUGACACGCAAAACGCGUGCUCCGUUGAAUGGAGUUUAUCAUG | ≤ -4.2 |
| GGAUCUUCUCGAUUUAACAAAAAAGACAAAUCUGCCACACAGCUUGAGAGCAUUUUCGGAUGAAGAGGCGGCAGCCUUCGGUGGCGCGAUAGCGUCAACGUUCUCCACUAUGACACGCAAAACGCGUGCUCCGUUGAAUGGAGUUUAUCAUG | ≤ -4.2 |
| GGAUCUUCUCGAUUUAACAAAAAAGACAAAUCUGCCACACAGCUUGAGAGCAUCUUCGGAUGCAGAGGCGGCAGCGUUCGGUGGCGCGAUAGCGCCAACGUUCUCAACUAUGAUACGCAAAACGCGUGCUCCGUUGAAUGGAGUUUAUCAUG | ≤ -4.2 |
| GGAUCUUCUCGAUUUAACAAAAAAGACAAAUCUGCCACAGACCUUGAGAGCAUCUUCGGAUGCAGAGGCGGCAGCCUUCGGUGGCGCGAUAGGGGCUACGUUCUCAACUAUGACACGCAAAACGCGUGCUCCGUUGAAUGGAGUUUAUCAUG | ≤ -4.2 |
| GGAUCUUCUCGAUUUAACAAAAAAGACAAAUCUGCCACAGAGCUUGAGAGCAUCUUCGGAUGCAGAGGCGACAGCCUUCGGUGGCGCGAUAGCGCCAACGUUCUCAACUAUGACACGCAAAACGCGUGCUCCGUUGAUUGGAGUUUAUCAUG | ≤ -4.2 |
| GGAUCUUCUCGAUUUAACAAAAAAGACAAAUCUGCCACAUAGCAUGAGAGCAUCUUCGCAUGCAGAGGCGGCAGCCUUCGGUGGCGGGAUAGCGCCAACGUUCGCAACUAUGACACGCAAAACACGUGCUCCGUUGAAUGGAGUUUAUCAUG | ≤ -4.2 |
| GGAUCUUCUCGAUUUAACAAAAAAGACAAAUCUGCCACAAGGCUUGAGAGCAUCUUCGGAUGCAGAGGCGGCAGCCUUCGGUAGCGCGAUAGCGCCAACGUUCUCAACUAUGACACGCAAAACGCGUGCUCCGUUGUAUGGAGUUUAUCACG | ≤ -4.2 |
| GGAUCUUCUCGAUUUAACAAAAAAGACAAAUCUGCCACAAGGCUUGAGAGCAUCUUCGGAUGCAGAGGCGGCAGCCUGCGGUGGCGCGAUAGCGCCAACGUUCUCAACUAUGACACGCAAAACGCGUGCUCCGUUGCAUGGAGUUUAUCAUG | ≤ -4.2 |
| GGAUCUUCUCGAUUUAACAAAAAAGACAAAUCUGCCACAAUGCUUGAGAGCAUCUUCAGUUGCAGAGGCGGCAGCCUUCGGUGGCGCGAUAGGGCCAACGUUCUCAACUAUGACACGCAAAACGCGUGCUCCGUUGAAUGGAGUUUAUCAUG | ≤ -4.2 |
| GGAUCUUCUCGAUUUAACAAAAAAGACAAAUCUGCCACAAAGCUUGCGAGCAUUUUCGGAUGCAGAGGCGGCAGCCUUCGGUGACGCGAUAGCGCCAACGUUCUCAACUAUGACACGCAAAACGCGUGCUCCGUUGAAUGGAGUUUAUCAUG | -1.86 |
